Test results taken from PubChem BioAssay AID1468 (National Center for Advancing Translational Sciences (NCATS), 2008).
Out of some 280,000 compounds screened, about 1,100 (0.39%) were called active. Inconclusive results, whose numbers are uncertain, are shown with a selection of clear calls. The call rests on the fitted dose curve; in most records, active means well fitted inhibition curve with a large enough effect; inconclusive means small, poorly fitted or top-dose-only effect, or effect the other way; inactive means flat fitted curve, though single readings scatter. Potencies of inconclusive entries are left out as doubtful fits.
Further: nearly all actives have a fitted effect of over 55% in size.
On the % scale 0 is the no-effect control and ±100 the full control effect; potency means the concentration at half of the fitted maximal effect; tags describe the fitted curve by direction and shape.

These compounds were tested against Microtubule-associated protein tau (Homo sapiens) (UniProt P10636) (assay: qHTS for Inhibitors of Tau Fibril Formation, Fluorescence Polarization). Conditions: K18 P301L tau heparin fibrillization, Alexa594 FP, 6 h; series mostly up to 57.7 µM; activity, negative = inhibition: at the top concentration.
UniProt P10636, sequence (P10636 whole entry, looked up): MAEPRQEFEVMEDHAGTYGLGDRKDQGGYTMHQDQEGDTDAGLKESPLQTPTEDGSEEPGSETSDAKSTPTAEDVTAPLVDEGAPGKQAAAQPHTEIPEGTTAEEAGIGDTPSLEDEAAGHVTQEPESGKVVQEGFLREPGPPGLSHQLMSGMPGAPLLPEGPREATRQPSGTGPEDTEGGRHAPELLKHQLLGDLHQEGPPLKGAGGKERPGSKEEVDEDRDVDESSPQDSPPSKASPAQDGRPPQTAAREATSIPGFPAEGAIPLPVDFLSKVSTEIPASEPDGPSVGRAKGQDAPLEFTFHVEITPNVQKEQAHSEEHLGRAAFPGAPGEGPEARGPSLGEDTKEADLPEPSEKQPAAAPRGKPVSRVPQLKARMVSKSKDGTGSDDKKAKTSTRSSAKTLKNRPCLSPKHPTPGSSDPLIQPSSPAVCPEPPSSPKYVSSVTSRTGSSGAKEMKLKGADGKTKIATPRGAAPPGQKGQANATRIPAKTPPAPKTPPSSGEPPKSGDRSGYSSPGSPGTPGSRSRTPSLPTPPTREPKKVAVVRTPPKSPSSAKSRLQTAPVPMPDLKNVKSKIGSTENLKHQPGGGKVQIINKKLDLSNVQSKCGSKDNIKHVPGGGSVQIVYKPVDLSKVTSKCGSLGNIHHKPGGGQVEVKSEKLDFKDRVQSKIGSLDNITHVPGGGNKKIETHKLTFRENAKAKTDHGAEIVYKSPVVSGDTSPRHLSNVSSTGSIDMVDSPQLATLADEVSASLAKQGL
In short: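 Read-out: fluorescence polarization of Alexa 594-labeled tau (0.24 uM), 555 nm excitation, 632 nm emission. Mixtures held 15 uM unlabeled K18 P301L, compound and 20 uM heparin, pH 7 acetate buffer, incubated 6 hr at 37 C.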
In the case of `COc1ccc(CCNc2ccc(C(CC(N)=O)NC(=O)Cc3ccc(Br)cc3)cc2[N+](=O)[O-])cc1` (stereo not given), the Potency is reported as inconclusive [inhibitor, partial curve]. In the case of `CCc1ccc(C2C(C(=O)Nc3ccccc3C)=C(C)Nc3nc(SCc4cccc(OC)c4)nn32)cc1` (stereo not given), the Potency is reported as inconclusive [inhibitor, partial curve, poor fit]. With `c1ccc2c(c1)CCN(c1nc3cc4c(cc3s1)OCCO4)C2` the “activity, negative = inhibition” value was inactive: -0.188%. With `COc1ccccc1NC(=O)C1=C(C)Nc2c(C(=O)Nc3cccc(C)c3)cnn2C1c1ccccc1Cl` (stereo not given) the Potency was inconclusive [inhibitor, single point]. `O=S(=O)(c1ccc(F)c(F)c1F)N1CCN(C(=S)NCc2ccccc2)CC1` was tested, and the Potency was inconclusive [inhibitor, partial curve]. For `CCCOc1ccc(CSc2nc3ccccc3[nH]2)cc1`, the “activity, negative = inhibition” value was inactive: -14.7%. In the case of `CCN1CCN(C(c2ccc(SC)cc2)c2c(O)cc(C)n(CCOC)c2=O)CC1` (stereo not given), the Potency is reported as inconclusive [inhibitor, single point]. With `c1ccc(-c2ccc(OCCOCCn3cncn3)cc2)cc1` the Potency was inconclusive [activator, partial curve]. `Oc1c(Br)cc(Br)cc1C=Nc1ccc2c(c1)OCO2` was tested, and the Potency was inconclusive [inhibitor, single point]. With `O=C(/C=C/c1ccco1)NCc1ccc2c(c1)OCO2` the Potency was inconclusive [inhibitor, single point]. `COc1ccc(OC)c(NS(=O)(=O)c2ccc(N3CCCCS3(=O)=O)cc2)c1` was tested, and the “activity, negative = inhibition” value was inactive: -0.969%. With `CCOc1ccc(N2CC(NC(=O)C3CCCC3)CC2=O)cc1` (stereo not given) the Potency was inconclusive [inhibitor, single point]. With `Cc1cc(SCC(=O)NC(=O)NCc2ccco2)nc2c(C)cccc12` the Potency was inconclusive [inhibitor, single point]. `Cc1ccc(-n2c(SCC(=O)NCc3ccco3)nc3c([nH]c4ccccc43)c2=O)cc1` was tested, and the “activity, negative = inhibition” value was inactive: -12.9%. For `Cc1cc(-n2ccnc(NCCc3ccc(S(N)(=O)=O)cc3)c2=O)ccc1Br`, the “activity, negative = inhibition” value was inactive: 10.1%. With `CC(=O)c1cccc(NC(=O)CN(c2cc(C)cc(C)c2)S(=O)(=O)c2c(C)noc2C)c1` the Potency was inconclusive [inhibitor, partial curve, poor fit]. In the case of `CCN(CC)c1ccc(/C=N/Nc2ccccc2)c(O)c1`, the Potency is reported as inconclusive [inhibitor, single point]. With `O=C(Cc1ccccc1)NC(=S)Nc1ccc(N2CCCCC2)cc1` the Potency was inconclusive [activator, partial curve, poor fit]. `N#Cc1c(C(F)(F)F)cc(-c2cccs2)nc1SCC(=O)Nc1cccc(Cl)c1` was tested, and the Potency was inconclusive [inhibitor, full curve]. With `Oc1c(C(c2ccco2)N2CCN(C(c3ccccc3)c3ccccc3)CC2)sc2ncnn12` (stereo not given) the Potency was inconclusive [inhibitor, single point]. For `COc1ccccc1C(=O)Nc1sc(Nc2ccccc2)nc1C(N)=O`, the Potency was inconclusive [activator, full curve, poor fit]. With `COC(=O)/C=C/S(=O)(=O)c1ccc(NC(C)=O)cc1` the Potency was inconclusive [inhibitor, partial curve]. In the case of `CCN(CC)S(=O)(=O)c1ccc(Cl)c(C(=O)Oc2cccc(-c3cnc4ccccc4n3)c2)c1`, the Potency is reported as inconclusive [inhibitor, partial curve, poor fit]. `N#CC1=C(N)NC(SCc2ccc(F)cc2)=C(C#N)C12CCCCC2` was tested, and the Potency was inconclusive [activator, partial curve, poor fit]. `CCc1ccc(C2CC(=O)N3CN(c4ccccc4)CSC3=C2C#N)cc1` (stereo not given) was tested, and the Potency was inconclusive [inhibitor, single point]. With `Nc1nn(-c2ccccc2)nc1C(=O)OCc1ccccc1` the Potency was inconclusive [inhibitor, partial curve, poor fit]. For `Cc1c(CC(=O)O)c(=O)oc2c(C)c(OCc3nn[nH]n3)ccc12`, the Potency was inconclusive [inhibitor, single point]. For `CCc1ccccc1-n1nnc(-c2nsc(NC(=O)c3ccc(C)c(C)c3)n2)c1C`, the Potency was inconclusive [inhibitor, single point]. With `CCOC(=O)c1c(C)[nH]c(C)c1S(=O)(=O)N(C)CC(=O)Nc1ccc(C)cc1Br` the “activity, negative = inhibition” value was inactive: -1.79%. `COc1ccc(N2C(=O)CC(Nc3ccc(C)cc3)C2=O)cc1` (stereo not given) was tested, and the “activity, negative = inhibition” value was inactive: 5.68%. With `N#CC(C#N)=C1NC2(CCCC2)Cc2ccccc21` the Potency was inconclusive [inhibitor, single point]. With `CS(=O)c1ccccc1-c1nc(-c2cc(C(F)(F)F)cc(C(F)(F)F)c2)no1` (stereo not given) the “activity, negative = inhibition” value was inactive: 1.87%. In the case of `O=C(Nc1ccccc1)c1ccc(CSc2ncccn2)cc1`, the “activity, negative = inhibition” value is reported as inactive: -4.75%. With `Cn1c(O)c(N=NC(=S)Nc2ccccc2F)c2cc(S(=O)(=O)N3CCOCC3)ccc21` the Potency was inconclusive [activator, single point]. In the case of `O=c1nc2s/c(=C\c3ccc(-c4ccccc4[N+](=O)[O-])o3)c(=O)n2nc1-c1ccccc1`, the Potency is reported as inconclusive [inhibitor, partial curve]. `CC1=NN(c2ccc(C(=O)O)c(N)c2)C(=O)C1` was tested, and the Potency was inconclusive [inhibitor, partial curve, poor fit]. `COc1ccnc(Oc2ccc(F)cc2)c1C(=O)N/C=N/OCc1ccc(Cl)cc1Cl` was tested, and the Potency was inconclusive [inhibitor, single point]. With `O=C(Nc1cccnc1)c1ccc(Cl)c(S(=O)(=O)N2CCCCCC2)c1` the Potency was inconclusive [inhibitor, single point]. `CN(c1ccccc1C(=O)O)S(=O)(=O)c1ccc2[nH]c(=O)oc2c1` was tested, and the “activity, negative = inhibition” value was inactive: -9.49%. `CC(C)(C)OC(=O)CNC(=O)c1[nH]cnc1C(=O)N[C@@H](Cc1ccccc1)C(=O)OC(C)(C)C` was tested, and the Potency was inconclusive [inhibitor, partial curve]. In the case of `COc1ccc(NC(=O)CN(C2CCCCC2)S(C)(=O)=O)cc1Cl`, the Potency is reported as inconclusive [inhibitor, single point]. `CC(C)CCn1c(Sc2nc3ccccc3s2)nc2c1c(=O)[nH]c(=O)n2C` was tested, and the “activity, negative = inhibition” value was inactive: -0.772%. In the case of `CCn1c(C)nc([N+](=O)[O-])c1Sc1ccc(F)cc1`, the “activity, negative = inhibition” value is reported as inactive: -4.93%. For `CC(C)(C)c1cc(-c2nc(N)nc(N)n2)cc(C(C)(C)C)c1`, the Potency was active: 28.2 µM. With `O=C(COc1ccc([N+](=O)[O-])cc1)N/N=C/c1ccccn1` the “activity, negative = inhibition” value was inactive: -0.115%. In the case of `COc1ccc(/C=C\c2onc(C)c2S(=O)(=O)N2CCC(C(=O)Nc3cccc(OC)c3)CC2)cc1`, the Potency is reported as inconclusive [inhibitor, partial curve]. In the case of `CCOc1ccc(C2=Cc3cc(OC)c(OC)cc3C(=C(Cl)Cl)O2)cc1`, the Potency is reported as inconclusive [inhibitor, partial curve]. In the case of `Cc1ccc(S(=O)(=O)Nc2ccc3nc(-c4ccc(F)cc4)oc3c2)cc1`, the Potency is reported as inconclusive [inhibitor, partial curve]. `COc1cc(NC(=O)Cn2c(=O)ccc3cc(S(=O)(=O)N4CCCC4)ccc32)cc(OC)c1` was tested, and the Potency was inconclusive [inhibitor, partial curve, poor fit]. `CCC(C)NC(=O)CCC(=O)N1Cc2ccccc2Oc2ncccc21` (stereo not given) was tested, and the “activity, negative = inhibition” value was inactive: -3.55%. `O=C(NCc1ccccc1)c1cc2ccc3cccnc3c2[nH]1` was tested, and the Potency was inconclusive [inhibitor, single point]. In the case of `O=C(Nc1ccccc1)Nc1ccc2nnsc2c1`, the Potency is reported as inconclusive [inhibitor, partial curve]. With `O=C(CCSc1ccccc1)Nc1nc2c(s1)CCCC2` the Potency was inconclusive [inhibitor, single point]. `CCOC(=O)C(NC(C)=O)(Nc1ccc(S(=O)(=O)Nc2cc(C)on2)cc1)C(F)(F)F` (stereo not given) was tested, and the “activity, negative = inhibition” value was inactive: -2.21%. In the case of `Nc1nc(SCC(=O)NC2CCCC2)[nH]c(=O)c1-c1ccccc1`, the “activity, negative = inhibition” value is reported as inactive: -0.186%. `N#Cc1cccc(NC(=S)Nc2ccccc2)c1` was tested, and the Potency was inconclusive [inhibitor, full curve, poor fit]. For `COc1c2occc2c(OC)c2c(=O)cc(C(F)(F)F)oc12`, the Potency was inconclusive [inhibitor, single point]. In the case of `COc1cccc(NC(=O)C(OC(=O)c2ccccc2NS(=O)(=O)c2cccs2)c2ccccc2)c1` (stereo not given), the Potency is reported as inconclusive [inhibitor, single point]. `c1ccc(-c2nc(NCCCn3ccnc3)c3oc4ccccc4c3n2)cc1` was tested, and the Potency was inconclusive [inhibitor, single point]. `COC1=C(Nc2ccc(OC)cc2)C(=O)c2ccccc2C1=O` was tested, and the Potency was inconclusive [inhibitor, partial curve]. In the case of `Cc1ccc(CC2(O)CCN(CCOc3ccc(O)cc3)CC2)cc1`, the Potency is reported as inconclusive [inhibitor, single point]. `COc1ccc(/C=N/NC(=O)CCN2CCN(c3ccccc3)CC2)c(OC)c1OC` was tested, and the “activity, negative = inhibition” value was inactive: 7.89%. For `Cc1ccc(C(=O)NC(=S)Nc2ccc(NC(=O)c3cccs3)cc2)cc1[N+](=O)[O-]`, the Potency was inconclusive [inhibitor, partial curve]. In the case of `C[C@H]1COC(=O)[C@H]2CCCN2C(=O)[C@@H](C)COC(=O)[C@H](Cc2ccccc2)NC1=O`, the activity, negative = inhibition is reported as inactive: 4.1% [at 11.6 µM]. `COC(=O)c1ccc(NC(=O)CCc2c(C)nc3c(c(C)nn3C(C)(C)C)c2C)cc1` was tested, and the Potency was inconclusive [inhibitor, partial curve].
